The other results are listed elsewhere or left out. Values were computed here from the reads of four pooled replicates and scatter widely.
target: T1, Pho4 (S. cerevisiae) (UniProt P07270); assay: relative binding free energy (BET-seq); higher = weaker binding; conditions: reference: library average
T1 sequence: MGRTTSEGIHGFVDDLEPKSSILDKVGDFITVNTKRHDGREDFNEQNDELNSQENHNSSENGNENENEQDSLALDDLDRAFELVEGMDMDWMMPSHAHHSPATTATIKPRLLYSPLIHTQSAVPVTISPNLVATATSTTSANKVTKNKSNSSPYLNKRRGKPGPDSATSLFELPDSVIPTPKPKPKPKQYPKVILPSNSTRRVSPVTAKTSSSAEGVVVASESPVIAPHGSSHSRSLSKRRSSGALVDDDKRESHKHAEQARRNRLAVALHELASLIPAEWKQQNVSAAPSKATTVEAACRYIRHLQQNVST

Sequence | relative binding free energy [kcal/mol]
TATTTCACGTGCTTTG | 0.2
TGATTCACGTGATTCT | 0.24
GTTGTCACGTGCGAAG | 0.11
AGGGGCACGTGGTTGC | -0.18
TAGTGCACGTGGAAGA | 0.07
ACATTCACGTGAGTAG | 0.46
TGTCACACGTGGGATG | 0.06
TGATTCACGTGGGCGT | 0.11
AATTTCACGTGCAGTG | 0.12
AGATTCACGTGGGTCA | 0.21
GGAGACACGTGTATGT | -0.01
TTTGGCACGTGCGCGG | -0.32
AATTTCACGTGGTGAT | 0.24
AGTTTCACGTGGCGTC | 0.21
TGGGACACGTGGCATT | 0.08
TGACGCACGTGGGAGG | -0.26
AATTACACGTGAAGTG | 0.18
CATGTCACGTGAGGAT | 0.2
CCAGGCACGTGGTTGG | -0.21
TATGTCACGTGTGTCC | 0.3
TGAGGCACGTGAATGT | 0.1
GGCAGCACGTGAGGCG | 0.11
GGTGGCACGTGCGCGT | -0.25

Sequence | relative binding free energy [kcal/mol]
CTTAGCACGTGGTGAG | 0.1
CTATTCACGTGGGGTT | 0.02
TGTTTCACGTGGTGAG | 0.25
TTTGACACGTGGGGGG | -0.07
CGCGGCACGTGGGTAA | -0.07
CTGGGCACGTGATGGG | -0.08
TTGATCACGTGTTGCA | 0.13
AATTTCACGTGCCGGT | 0.35
TGGTGCACGTGTCCGG | -0.05
TTTTACACGTGTTCTA | 0.14
TGGAGCACGTGTTCTG | -0.07
AGGTCCACGTGGAGGG | -0.04
TTCGTCACGTGTGAGA | 0.05
TCCATCACGTGGTGGT | 0.14
TGTGGCACGTGCCAGG | -0.22
CTTATCACGTGCTGGT | 0.13
TGTGGCACGTGGATGG | -0.01
TATTCCACGTGAGTTA | 0.26
CTAGGCACGTGTTGAG | -0.11
ATGCCCACGTGGGGGT | -0.34
TTGCTCACGTGCATTA | 0.35
AAGGCCACGTGGTTTA | -0.02
GCGGGCACGTGTATGT | 0

Sequence | relative binding free energy [kcal/mol]
TATTTCACGTGGTGGT | 0.21
GGAGACACGTGGGAAG | -0.02
TGATTCACGTGGATAT | 0.33
TAGGGCACGTGAAAAG | 0.02
TGCAACACGTGTTAGG | 0.04
GTGGTCACGTGGTGAA | 0.08
ATCTGCACGTGAGTGA | 0.19
TGTGGCACGTGTGCGG | -0.09
GTCTGCACGTGTTCGG | -0.08
GGTGGCACGTGTGAAC | -0.02
AGTATCACGTGGGAAG | 0.09
TTGGTCACGTGGTAGA | 0.15
TTTGACACGTGAGCTG | 0.16
TTGAGCACGTGTTGTC | -0.03
TGGCTCACGTGAATTT | 0.29
GTCTACACGTGGTTAG | 0.09
TGTTACACGTGCTGTC | 0.25
TTAAGCACGTGAGTTC | 0.24
GCAGGCACGTGAGGTT | 0.02
TTGTGCACGTGTGTGA | 0.02
AGGGGCACGTGGTTGT | -0.14
ACAGGCACGTGGCGTT | -0.13
GTCTTCACGTGGAGGT | 0.25

Sequence | relative binding free energy [kcal/mol]
GTGACCACGTGAAGTG | 0.29
GATTGCACGTGGCGGC | 0.04
ATGTCCACGTGTGTTG | 0.03
TAAATCACGTGGGGAT | 0
TCTTGCACGTGTTTAT | 0.22
CAGTTCACGTGTGGGC | 0.23
GGAGTCACGTGCGTGC | 0
AGGGACACGTGCGCGT | -0.14
TATTGCACGTGTTTGT | 0.09
AAGTGCACGTGAATTT | 0.2
ATCAGCACGTGTGGGA | -0.15
AAGAGCACGTGAGATG | 0.15
AATTTCACGTGATACT | 0.32
GTGAGCACGTGTGTTA | -0.04
TTTGGCACGTGACGTA | -0.04
AAGCGCACGTGGATTG | -0.06
GAAGGCACGTGGGTCA | -0.14
TTTTGCACGTGTAGTA | 0.13
ATTTACACGTGTGGGC | 0.17
GGGGTCACGTGTTTTA | 0.23
ACAGCCACGTGGGGGG | -0.28
GTATGCACGTGAGGGG | 0.2
ATGTGCACGTGCCGTT | -0.18

Sequence | relative binding free energy [kcal/mol]
TGGAGCACGTGGAGGG | -0.12
CAATGCACGTGATGTG | 0.06
ATCGTCACGTGAATTG | 0.28
TGGAGCACGTGGATTG | 0.01
GGGTCCACGTGGTGTG | -0.11
GGTCGCACGTGCATGG | -0.07
GGGCACACGTGTCAGG | 0.12
TAGTCCACGTGATGGT | 0.19
TTTCGCACGTGGTTGA | -0.06
TACGGCACGTGGGCTG | -0.19
TGGTACACGTGATTGG | 0.26
TGTTACACGTGATGAG | 0.1
CGAATCACGTGGGGTT | 0.12
GAGAACACGTGTGTGG | 0.09
TACGTCACGTGTGCAG | 0.17
GCTGTCACGTGTTTAG | 0.17
GGAGGCACGTGTAATG | -0.01
TGGTTCACGTGCGTCA | 0.32
TGCGACACGTGGGGAG | -0.03
AATTGCACGTGTGTTG | 0.1
CGGAACACGTGGTAGT | 0.08
AGTATCACGTGTGCTA | 0.11
TGGTTCACGTGCTACG | 0.28

— the BET-seq Pho4 binding data (Le et al. 2018)
